Test results reported in PubChem BioAssay (NCI).
Values joined by “and” are separate entries in the source; they are usually repeats but may differ in a detail not shown here. Equal values may be shown once.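 Five compound concentrations were applied to cells in 96-well plates for 48 hours; endpoints were derived by simple linear interpolation of the resulting dose-response curve. GI50 = concentration required for 50% inhibition of growth.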

System: NCI-H322M lung
Test: NCI tumour cell line growth inhibition, 48 h

Compound: CC[C@]1(O)C[C@H]2CN(CCc3c([nH]c4ccccc34)[C@@](C(=O)OC)(c3cc4c(cc3OC)N(C=O)[C@H]3[C@@](O)(C(=O)OC)[C@H](OC(C)=O)[C@]5(CC)C=CCN6CC[C@]43[C@@H]65)C2)C1
- GI50: 97.6 nM and 103 nM
